Data taken from article PMC4336329 (PLoS ONE, 2015).
Screen size: about 310,000 compounds; about 2,200 (0.71%) showed an effect of 50% or more. Effects have a minus sign here. The list shows a part of the results.

These compounds were tested against human ether-à-go-go-related gene (hERG) potassium channel (human, UniProt Q12809) (assay: primary screen, population patch clamp on CHO cells stably expressing hERG).
Chain of human ether-à-go-go-related gene (hERG) potassium channel (Q12809 whole entry, looked up): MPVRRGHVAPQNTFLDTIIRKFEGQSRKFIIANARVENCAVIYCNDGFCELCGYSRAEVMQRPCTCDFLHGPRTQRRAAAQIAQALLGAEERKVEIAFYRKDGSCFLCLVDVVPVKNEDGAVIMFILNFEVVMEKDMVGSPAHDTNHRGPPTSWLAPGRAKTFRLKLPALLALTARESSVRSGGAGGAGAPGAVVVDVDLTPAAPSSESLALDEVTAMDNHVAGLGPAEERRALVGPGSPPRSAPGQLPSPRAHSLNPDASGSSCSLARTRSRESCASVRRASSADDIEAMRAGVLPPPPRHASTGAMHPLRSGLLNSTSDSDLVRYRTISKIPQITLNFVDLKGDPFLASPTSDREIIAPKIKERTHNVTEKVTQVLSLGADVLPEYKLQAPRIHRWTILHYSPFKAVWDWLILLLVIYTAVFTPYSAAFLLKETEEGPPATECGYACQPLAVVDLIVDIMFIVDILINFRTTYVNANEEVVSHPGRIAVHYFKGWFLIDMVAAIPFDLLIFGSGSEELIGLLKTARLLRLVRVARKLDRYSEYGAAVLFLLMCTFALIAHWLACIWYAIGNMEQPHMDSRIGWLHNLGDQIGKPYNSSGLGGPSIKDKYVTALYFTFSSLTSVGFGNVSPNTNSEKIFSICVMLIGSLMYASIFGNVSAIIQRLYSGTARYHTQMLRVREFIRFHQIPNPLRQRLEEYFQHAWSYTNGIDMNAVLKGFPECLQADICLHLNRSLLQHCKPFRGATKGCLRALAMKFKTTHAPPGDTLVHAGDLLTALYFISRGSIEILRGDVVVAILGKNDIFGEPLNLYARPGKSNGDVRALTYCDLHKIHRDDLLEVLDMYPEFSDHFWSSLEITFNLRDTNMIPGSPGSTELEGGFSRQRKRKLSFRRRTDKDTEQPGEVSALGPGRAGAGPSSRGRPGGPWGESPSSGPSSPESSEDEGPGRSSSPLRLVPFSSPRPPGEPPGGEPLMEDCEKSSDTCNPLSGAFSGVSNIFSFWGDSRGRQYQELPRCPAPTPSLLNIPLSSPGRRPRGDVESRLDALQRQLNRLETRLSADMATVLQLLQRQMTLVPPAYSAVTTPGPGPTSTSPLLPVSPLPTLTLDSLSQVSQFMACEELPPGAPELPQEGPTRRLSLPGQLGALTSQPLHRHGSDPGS

**Q.** For `COCCCn1cc(C(=O)c2cc(OC)ccc2OCC(=O)N2CCCCC2C)cc(C#N)c1=O` (stereo not shown), which “hERG current change (%, negative = inhibition) at 1uM” value is on record?
**A.** The value was -6.39%.

**Q.** `CC(=O)N1c2ccc(S(=O)(=O)N3CCCC3C(=O)NCc3ccc(Cl)cc3)cc2CC1C` (stereo not shown) was tested. Which “hERG current change (%, negative = inhibition) at 1uM” value did it give?
**A.** The value was -23.6%.

**Q.** Which “hERG current change (%, negative = inhibition) at 1uM” value does the source give for `Cn1c(=O)oc2cc(S(=O)(=O)NCCC(=O)NC3CCCC3)ccc21` here?
**A.** Its value is -0.0182%.

**Q.** For `CC(C)OP(=O)(OC(C)C)C(O)c1ccc(Br)cc1` (stereo not shown), which “hERG current change (%, negative = inhibition) at 1uM” value is on record?
**A.** Its value is -2.23%.

**Q.** How did the “hERG current change (%, negative = inhibition) at 1uM” value turn out when `O=C(Nc1ccc2c(c1)OCO2)[C@@H]1[C@@H]2C(=O)N(C3CCCCC3)C(=O)[C@@H]2C2c3ccccc3C=CN21` (stereo partly shown) was run?
**A.** The value was -5.83%.

**Q.** With `C[n+]1ccc(C(=O)NCCC[N+](C)(C)C)cc1/C=N/O.[Cl-]` as the compound, how does the “hERG current change (%, negative = inhibition) at 1uM” value read?
**A.** The value was 15.4%.

**Q.** With `COc1cccc(NC(=O)CN2CCN(S(=O)(=O)c3ccc(F)cc3)CC2)c1` as the compound, how does the “hERG current change (%, negative = inhibition) at 1uM” value read?
**A.** The value was 4.16%.

**Q.** With `CC(C)(C)c1ccc(Oc2ccc(N)cn2)cc1` as the compound, how does the “hERG current change (%, negative = inhibition) at 1uM” value read?
**A.** The value was 11.2%.

**Q.** Which “hERG current change (%, negative = inhibition) at 1uM” value does the source give for `N#Cc1cnn(-c2ncnc3sc(-c4ccccc4)cc23)c1N` here?
**A.** The value was 3.12%.

**Q.** `Cc1ccc(NC(=O)CSc2nc3nc(C)c(Br)cc3[nH]2)cc1F` was tested. Which “hERG current change (%, negative = inhibition) at 1uM” value did it give?
**A.** Its value is 15.4%.

**Q.** `O=C(Nc1ncnc2sc3c(c12)CCCCC3)c1ccco1` was tested. Which “hERG current change (%, negative = inhibition) at 1uM” value did it give?
**A.** The value was -0.306%.

**Q.** Which “hERG current change (%, negative = inhibition) at 1uM” value does the source give for `O=C(Nc1nc(COc2ccccc2)cs1)C12CC3CC(CC(C3)C1)C2` here?
**A.** Its value is -4.23%.

**Q.** `COc1ccc(-n2c(Cc3cc(=O)[nH]c(=O)[nH]3)nnc2SCC(=O)N2CCCC2)cc1` was tested. Which “hERG current change (%, negative = inhibition) at 1uM” value did it give?
**A.** Its value is -4.1%.

**Q.** With `COc1cc(OC)cc(OC(=O)c2ccc3c(=O)n4c(nc3c2)CCC4)c1` as the compound, how does the “hERG current change (%, negative = inhibition) at 1uM” value read?
**A.** Its value is 3.08%.

**Q.** With `c1ccc(CCn2c3ccccc3c3nnc(SCc4ccc5nonc5c4)nc32)cc1` as the compound, how does the “hERG current change (%, negative = inhibition) at 1uM” value read?
**A.** Its value is -3.19%.

**Q.** `COc1ccc(Cl)cc1N(CC(=O)Nc1ccccc1C(=O)N1CCOCC1)S(C)(=O)=O` was tested. Which “hERG current change (%, negative = inhibition) at 1uM” value did it give?
**A.** The value was 4.75%.

**Q.** `COC(=O)C1=C(N)Oc2cc(C)oc(=O)c2C12C(=O)Nc1ccccc12` (stereo not shown) was tested. Which “hERG current change (%, negative = inhibition) at 1uM” value did it give?
**A.** Its value is 12.7%.

**Q.** How did the “hERG current change (%, negative = inhibition) at 1uM” value turn out when `O=C(CNS(=O)(=O)c1ccccc1)N1CCN(c2ccccc2)CC1` was run?
**A.** The value was -2.25%.

**Q.** How did the “hERG current change (%, negative = inhibition) at 1uM” value turn out when `O=C(NCCN1CCOCC1)c1ccc(CS(=O)(=O)c2ccc(Br)cc2)o1` was run?
**A.** The value was -0.189%.

**Q.** For `CCSc1nc2c(c(=O)[nH]1)C(C(C)C)C(C#N)=C(N)O2` (stereo not shown), which “hERG current change (%, negative = inhibition) at 1uM” value is on record?
**A.** Its value is 9.65%.

**Q.** For `CCCc1cc(=O)[nH]c(SCCc2ccccc2)n1`, which “hERG current change (%, negative = inhibition) at 1uM” value is on record?
**A.** The value was 12.8%.

**Q.** `CCOc1cc2[nH]c(=S)n(CCCCC(=O)NCc3ccco3)c(=O)c2cc1OCC` was tested. Which “hERG current change (%, negative = inhibition) at 1uM” value did it give?
**A.** Its value is -3.41%.

**Q.** With `COC(C(=O)N/N=C(\C)CC(=O)Nc1ccc(Cl)cc1C)c1ccccc1` (stereo not shown) as the compound, how does the “hERG current change (%, negative = inhibition) at 1uM” value read?
**A.** The value was 6.55%.

**Q.** `CCN(CC)CCCNC(=O)c1cc2c(Cl)nc3ccccc3c2s1` was tested. Which “hERG current change (%, negative = inhibition) at 1uM” value did it give?
**A.** The value was -8.23%.

**Q.** How did the “hERG current change (%, negative = inhibition) at 1uM” value turn out when `COc1cc(/C=c2\sc3n(c2=O)CCCN=3)ccc1O` was run?
**A.** Its value is 13.5%.

**Q.** How did the “hERG current change (%, negative = inhibition) at 1uM” value turn out when `Cc1ccc(C2=NN(C(=O)CSc3nccn3C)C(c3ccco3)C2)cc1` (stereo not shown) was run?
**A.** Its value is -13.7%.

**Q.** `O=C(Nc1nc2ccccc2[nH]1)c1ccc(OC(F)F)cc1` was tested. Which “hERG current change (%, negative = inhibition) at 1uM” value did it give?
**A.** The value was 0.409%.

**Q.** Which “hERG current change (%, negative = inhibition) at 1uM” value does the source give for `COc1ccc2nc(Cl)c(C3CC(c4ccco4)=NN3C(=O)CCC(=O)O)cc2c1` (stereo not shown) here?
**A.** Its value is -8.1%.

**Q.** For `CC(CCc1ccccc1)NC(=O)CNc1cccc([N+](=O)[O-])c1` (stereo not shown), which “hERG current change (%, negative = inhibition) at 1uM” value is on record?
**A.** The value was -2.71%.

**Q.** How did the “hERG current change (%, negative = inhibition) at 1uM” value turn out when `CSc1nnc(NC(=O)C2CCCCC2)s1` was run?
**A.** Its value is 7.66%.

**Q.** `O=C(O)CSCC(=O)N(Cc1ccccc1)c1nc(-c2ccccc2)c(-c2ccccc2)s1` was tested. Which “hERG current change (%, negative = inhibition) at 1uM” value did it give?
**A.** The value was 6.31%.

**Q.** With `CCC(c1nnnn1CCc1ccccc1)N(Cc1ccco1)Cc1cc2c(C)ccc(C)c2[nH]c1=O` (stereo not shown) as the compound, how does the “hERG current change (%, negative = inhibition) at 1uM” value read?
**A.** The value was 2.44%.

**Q.** `Cc1ccccc1-n1c(SCC(=O)NCC2CCCO2)nc2c([nH]c3ccccc32)c1=O` (stereo not shown) was tested. Which “hERG current change (%, negative = inhibition) at 1uM” value did it give?
**A.** Its value is 13.7%.

**Q.** For `O=C(CCNS(=O)(=O)c1ccccc1)Nc1ccc(Cl)cc1C(=O)c1ccccc1`, which “hERG current change (%, negative = inhibition) at 1uM” value is on record?
**A.** The value was -16.3%.

**Q.** With `Cc1cc(C)c(NC(=O)CN)c(C)c1.Cl` as the compound, how does the “hERG current change (%, negative = inhibition) at 1uM” value read?
**A.** The value was 13.3%.

**Q.** With `COc1ccc(C(=O)c2c(NC(C)=O)sc3c2CCN(C(=O)OC(C)(C)C)C3)cc1` as the compound, how does the “hERG current change (%, negative = inhibition) at 1uM” value read?
**A.** Its value is 5.36%.

**Q.** With `CCCOc1ccc(CNC(=O)C2CCN(C(=O)N3CCOc4ccccc43)CC2)cc1` as the compound, how does the “hERG current change (%, negative = inhibition) at 1uM” value read?
**A.** The value was 13.4%.

**Q.** With `CCCc1ccc(OCc2ccc(C(=O)N3CCSCC3)o2)cc1` as the compound, how does the “hERG current change (%, negative = inhibition) at 1uM” value read?
**A.** Its value is 5.73%.

**Q.** Which “hERG current change (%, negative = inhibition) at 1uM” value does the source give for `CCOC(=O)c1c(C)[nH]c(C(=O)NCCc2ccc(OC)c(OC)c2)c1C` here?
**A.** The value was -6.48%.

**Q.** With `CC(C)C(Nc1ccc(S(=O)(=O)N2CCOCC2)cc1[N+](=O)[O-])C(=O)O` (stereo not shown) as the compound, how does the “hERG current change (%, negative = inhibition) at 1uM” value read?
**A.** Its value is 14.9%.

**Q.** For `Cn1ccnc1Sc1cc(NCCCO)c([N+](=O)[O-])c2nonc12`, which “hERG current change (%, negative = inhibition) at 1uM” value is on record?
**A.** The value was 6.85%.

**Q.** Which “hERG current change (%, negative = inhibition) at 1uM” value does the source give for `CCOC(=O)N1CCN(C(=S)Nc2cccc(C)c2)CC1` here?
**A.** The value was 2.51%.

**Q.** For `CCc1c(C)n2nc(C)cc2[nH]c1=O`, which “hERG current change (%, negative = inhibition) at 1uM” value is on record?
**A.** Its value is 0.617%.

**Q.** How did the “hERG current change (%, negative = inhibition) at 1uM” value turn out when `CCOc1cc(/C=C2\N=C(C)OC2=O)cc(Br)c1OCC(=O)OC` was run?
**A.** The value was 18.6%.

**Q.** For `O=C(COC(=O)C1CC2C=CC1C2)Nc1ccccc1` (stereo not shown), which “hERG current change (%, negative = inhibition) at 1uM” value is on record?
**A.** The value was 0.351%.

**Q.** `Cc1cc(C)n2nc(C(=O)OCC(=O)N3C(C)CCCC3C)nc2n1` (stereo not shown) was tested. Which “hERG current change (%, negative = inhibition) at 1uM” value did it give?
**A.** Its value is 9.28%.

**Q.** `Cc1nn(C2CCS(=O)(=O)C2)c(C)c1CN(C)C(=O)c1cccc(Cl)c1` (stereo not shown) was tested. Which “hERG current change (%, negative = inhibition) at 1uM” value did it give?
**A.** The value was 12.4%.

**Q.** With `N/C(=N\c1nc2ccccc2o1)NC(=O)c1ccccc1F` as the compound, how does the “hERG current change (%, negative = inhibition) at 1uM” value read?
**A.** The value was -3.34%.

**Q.** `Cc1ccc(NC(=O)CSCC(=O)OC(C)C(=O)Nc2ccc(S(N)(=O)=O)cc2)c(C)c1` (stereo not shown) was tested. Which “hERG current change (%, negative = inhibition) at 1uM” value did it give?
**A.** The value was 12.3%.

**Q.** For `CC(C)NC(=O)C1CCN(c2ccc(S(=O)(=O)N3CCOCC3)cc2Cl)CC1`, which “hERG current change (%, negative = inhibition) at 1uM” value is on record?
**A.** The value was 13.9%.

**Q.** `O=C(CSc1nnc(-c2ccncc2)n1C1CCCCC1)Nc1ccccc1` was tested. Which “hERG current change (%, negative = inhibition) at 1uM” value did it give?
**A.** Its value is 5.16%.

**Q.** `Cc1c(NC(=O)CN2C(=O)C(=O)N(Cc3ccccc3)C2=O)c(=O)n(-c2ccccc2)n1C` was tested. Which “hERG current change (%, negative = inhibition) at 1uM” value did it give?
**A.** The value was 13.8%.

**Q.** With `Cc1ccccc1NC(=S)NCCc1c[nH]c2ccccc12` as the compound, how does the “hERG current change (%, negative = inhibition) at 1uM” value read?
**A.** Its value is 14%.

**Q.** For `CN1OC(COC(=O)c2ccccc2)CC1c1ccccc1` (stereo not shown), which “hERG current change (%, negative = inhibition) at 1uM” value is on record?
**A.** Its value is 3.71%.

**Q.** Which “hERG current change (%, negative = inhibition) at 1uM” value does the source give for `CN1C(=O)C(CCC(N)=O)NC1=S` (stereo not shown) here?
**A.** Its value is 1.9%.
